# Data: PubChem BioAssay AID1030 (National Center for Advancing Translational Sciences (NCATS), 2008)
# Values joined by “and” are separate entries in the source; they are usually repeats but may differ in a detail not shown here. Equal entries are not always repeated. The campaign covered roughly 220,000 compounds. About 16,000 (7.3%) were called active. Inconclusive results, whose numbers are uncertain, are shown with a selection of clear calls. Calls come from the whole dose curve; as a rule, active = well fitted inhibition curve with a large enough effect (not every such curve was filed as active); inconclusive = small, poorly fitted or top-dose-only effect, or another doubt; inactive = no such curve, though single readings can be large or run the other way. A potency beside an inconclusive call is a rough fit, not a confirmed value.
# Target: Aldehyde dehydrogenase 1A1 (Homo sapiens) (UniProt P00352)
# Assay: qHTS Assay for Inhibitors of Aldehyde Dehydrogenase 1 (ALDH1A1)
# Details: Purified ALDH1A1, NADH fluorescence, propionaldehyde substrate; series mostly up to 75.3 µM
# Potency is the fitted concentration of half-maximal effect; tags give direction and shape of the fitted curve.
# Sequence of UniProt P00352 (P00352 whole entry, looked up): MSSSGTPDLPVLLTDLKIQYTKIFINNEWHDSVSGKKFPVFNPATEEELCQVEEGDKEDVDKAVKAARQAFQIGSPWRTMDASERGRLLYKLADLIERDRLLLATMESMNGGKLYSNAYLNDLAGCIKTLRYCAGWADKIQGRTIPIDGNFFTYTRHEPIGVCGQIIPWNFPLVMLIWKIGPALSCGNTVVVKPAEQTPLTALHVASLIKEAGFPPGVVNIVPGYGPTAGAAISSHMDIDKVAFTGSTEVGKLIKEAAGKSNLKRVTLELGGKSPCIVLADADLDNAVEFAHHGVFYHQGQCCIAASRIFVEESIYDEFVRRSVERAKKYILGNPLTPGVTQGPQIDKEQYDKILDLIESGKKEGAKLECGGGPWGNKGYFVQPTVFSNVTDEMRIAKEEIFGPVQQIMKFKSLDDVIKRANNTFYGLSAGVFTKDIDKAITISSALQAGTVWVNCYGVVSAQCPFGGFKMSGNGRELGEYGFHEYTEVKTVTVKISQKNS
row,Compound,Potency
1,COc1ccc(C)cc1NC(=O)CN1CCN(S(=O)(=O)c2ccc(Cl)cc2)CC1,active: 0.316 µM
2,CCOCCCn1c(=S)[nH]c2cc(C(=O)NCCOC)ccc2c1=O,"inconclusive: 28.2 µM [inhibitor, partial curve]"
3,CCCCc1nc(NCCNC(=O)c2ccco2)c(C#N)c2c1CSC(C)(C)C2,"inconclusive: 31.6 µM [inhibitor, partial curve]"
4,COc1ccc2c(CC(=O)Nc3cccc(S(=O)(=O)N4CCOCC4)c3)coc2c1,"inconclusive: 39.8 µM [inhibitor, single point]"
5,CCC(C)NC(=O)CCC(=O)Nc1ccc2nc(N3CC(C)CC(C)C3)cc(C)c2c1 (stereo not drawn),"inconclusive: 25.1 µM [inhibitor, partial curve]"
6,O=C(COC(=O)CN1C(=O)c2ccccc2C1=O)Nc1ccc(S(=O)(=O)N2CCCC2)cc1,"inconclusive: 25.1 µM [inhibitor, single point]"
7,O=C(CCc1nc2ccccc2c(=O)[nH]1)OCCOc1ccc(Cl)cc1,inactive
8,COC(=O)C1=C(C)N=C2SCCC(=O)N2C1c1cc(Br)ccc1OC (stereo not drawn),"inconclusive: 44.7 µM [inhibitor, single point]"
9,NNC(=O)/C(=C/c1cccs1)NC(=O)c1ccccc1Cl,inactive
10,COCc1cc(C)nc(OCC(=O)N/N=C/c2ccc(O)cc2)c1C#N,inactive
11,Cc1ccccc1NC(=O)CN1C(=O)S/C(=C\c2cccn2-c2cccc(C(=O)O)c2)C1=O,"inconclusive: 31.6 µM [inhibitor, partial curve]"
12,CCc1c(C)nc(N)n2c(SCC(=O)Nc3ccccc3OC)nnc12,"inconclusive: 39.8 µM [inhibitor, single point]"
13,CCCN1C=CC(=CC=C(C#N)C#N)C=C1,"inconclusive: 23.8 µM [inhibitor, single point]"
14,COCCCn1c(=O)/c(=C\c2ccc(OC(F)F)c(OC)c2)s/c1=C(/C#N)C(=O)NCCOC,"inconclusive: 28.2 µM [inhibitor, partial curve]"
15,CC1CCc2cc(F)cc3c(O)c(C(=O)NCC4CCCO4)c(=O)n1c23 (stereo not drawn),"inconclusive: 35.5 µM [inhibitor, single point]"
16,O=C(N/N=C/C=C/c1ccccc1)c1ccncc1,inactive
17,CCOC(=O)c1c(/N=C/c2cccc([N+](=O)[O-])c2O)sc2c1CCC2,"inconclusive: 28.2 µM [inhibitor, single point]"
18,CC(=O)N1c2ccccc2C(=O)C1N1CCCCC1 (stereo not drawn),active: 28.2 µM
19,O=C(Nc1ccon1)c1cccc(S(=O)(=O)N2CCCCC2)c1,inactive
20,COc1cccc(-c2cc(C(=O)N3CCN(C(c4ccccc4)c4ccccc4)CC3)no2)c1,"inconclusive: 37.7 µM [inhibitor, single point]"
21,Cn1cnnc1SC1CCCCC1NS(=O)(=O)c1ccc(Cl)cc1 (stereo not drawn),active: 12.6 µM
22,CCCCOc1ccc(C(=O)Nc2ccncc2)cc1,inactive
23,CCCn1c(SCC(=O)Nc2nnc(CC)s2)nnc1-c1ccco1,"inconclusive: 39.8 µM [inhibitor, single point]"
24,COc1ccc(-c2nc(N3CCCCCC3)sc2C(=O)c2ccccc2)cc1,"inconclusive: 25.1 µM [inhibitor, single point]"
25,COC(=O)CN(c1nc(C)c(Cl)c(OC)n1)S(=O)(=O)c1ccc(C)cc1,"inconclusive: 31.6 µM [inhibitor, single point]"

row,Compound,Potency
1,COc1ccc(NC(=O)CSc2nc(N)c(C#N)cc2C#N)cc1,"inconclusive: 35.5 µM [inhibitor, single point]"
2,Nc1nc2nc(-c3ccc(F)cc3)cc(C(F)(F)F)n2n1,"inconclusive: 15.8 µM [inhibitor, partial curve]"
3,CCC(=O)N/C(N)=N/c1nc(C)c2cc(OC)ccc2n1,"inconclusive: 39.8 µM [inhibitor, single point]"
4,Cc1nc(N)sc1-c1csc(Nc2ccccn2)n1,"inconclusive: 17.8 µM [inhibitor, partial curve]"
5,Cn1c(N)c(C(=O)COC(=O)c2cc(-c3ccco3)nc3ccccc23)c(=O)n(Cc2ccccc2)c1=O,"inconclusive: 25.1 µM [inhibitor, partial curve] and inconclusive: 12.6 µM [inhibitor, partial curve]"
6,CC(C)(C)c1ccc(OCCCC(=O)N2CCOCC2)cc1,inactive
7,O=C(O)CCCCNCc1ccccc1,inactive
8,Cc1ccnc(NC2CCCCC2)c1,"inconclusive: 22.4 µM [inhibitor, partial curve]"
9,COc1cc(C2C(C#N)=C(N)Oc3cc(O)ccc32)cc2c1OCO2 (stereo not drawn),"inconclusive: 22.4 µM [inhibitor, single point]"
10,N#Cc1c(N)nc(SCc2ccccc2)c(C#N)c1-c1ccco1,"inconclusive: 28.2 µM [inhibitor, partial curve]"
11,CS(=O)(=O)Nc1ccc(Br)cc1C(=O)c1ccccc1,inactive
12,Cc1ccc(CNS(=O)(=O)c2ccc(C(C)(C)C)cc2)n1C,active: 8.91 µM
13,CCOC(=O)c1c(NC(=O)CN2CCOCC2)sc2c1CCCC2=O,"inconclusive: 22.4 µM [inhibitor, partial curve]"
14,CCN(CC)S(=O)(=O)c1cccc(-c2n[nH]c(=S)n2/N=C/c2ccc(OC(F)F)cc2)c1,"inconclusive: 39.8 µM [inhibitor, single point]"
15,O=C1CC(c2ccc(O[C@@H]3OC(CO)[C@@H](O)C(O)C3O)cc2)Oc2cc(O)ccc21 (stereo partly drawn),inactive
16,COc1cccc(NC(=O)COC(=O)c2ccccc2C(=O)N2CCN(c3ccccc3)CC2)c1,inactive
17,COc1cccc(CC(=O)Nc2cc(S(=O)(=O)N3CCOCC3)ccc2N2CCOCC2)c1,"inconclusive: 39.8 µM [inhibitor, single point]"
18,COc1cccc(-c2nnc(SCCOc3ccc4c(C)cc(=O)oc4c3)o2)c1,"inconclusive: 25.1 µM [inhibitor, partial curve]"
19,Cc1nnc(SCC(=O)N(C)c2ccccc2)n1Cc1ccccc1,"inconclusive: 44.7 µM [inhibitor, single point]"
20,CC1CC(C)CN(c2oc(Cc3ccccc3)nc2C#N)C1 (stereo not drawn),inactive
21,O=C(NCCc1ccccc1)c1cccc([N+](=O)[O-])c1,"inconclusive: 10 µM [inhibitor, partial curve]"
22,CCOC(=O)c1c(-c2ccccc2)oc2ccc(OC(C)=O)cc12,"inconclusive: 22.4 µM [inhibitor, partial curve]"
23,O=C(/C=C/c1c(Cl)nc2ccccn12)N1CCCCC1,active: 11.2 µM
24,COc1cc(OC)cc(C(=O)Nc2ccc(-c3nc4ccccc4o3)cc2)c1,"inconclusive: 39.8 µM [inhibitor, single point]"
25,O=c1c2[nH]c3ccc(Br)cc3c2ncn1CCCn1ccnc1,"inconclusive: 0.0056 µM [inhibitor, full curve, poor fit]"

row,Compound,Potency
1,O=C(c1ccc(OC2CCN(C(=O)c3cccnc3)CC2)cc1)N1CCCCCC1,"inconclusive: 25.1 µM [inhibitor, single point]"
2,COC(=O)c1ccc(C(=O)NCCCCO)cc1,inactive
3,Cc1cc(N)c2ccccc2n1,inactive
4,CC1=C(SCCC#N)S/C(=C2\SC(C)=C(SCCC#N)S2)S1,active: 5.01 µM
5,CCc1nnc(NC(=O)CCN2C(=O)c3ccccc3S2(=O)=O)s1,"inconclusive: 35.5 µM [inhibitor, single point]"
6,Cc1cc(CNC(=O)Cc2ccc(F)cc2)c2ccccc2n1,inactive
7,CCN(CC)c1ccc(CNc2ccc(Br)cn2)cc1,active: 7.08 µM
8,N#CC1=C(N)SC(N)=C(C#N)C1c1ccoc1,active: 20 µM
9,COc1ccc(S(=O)(=O)NCC2CCCN(C(=O)c3cccnc3C)C2)cc1 (stereo not drawn),inactive
10,CCn1ccnc1CNC(=O)CC1C(=O)NCCN1Cc1ccccc1F (stereo not drawn),inactive
11,Cc1csc(NC(=O)c2ccc(-c3ccc(Cl)cc3Cl)o2)n1,"inconclusive: 39.8 µM [inhibitor, single point]"
12,COc1ccc(OC)c(NC(=O)CN(C)CC(=O)Nc2ccccc2Br)c1,"inconclusive: 39.8 µM [inhibitor, single point]"
13,CC(C)(C)NC(=S)NNC(=O)c1ccccc1Cl,"inconclusive: 37.7 µM [inhibitor, single point]"
14,Cc1nn(C)c(C(=O)NNC(=S)Nc2ccc(Cl)cc2)c1[N+](=O)[O-],"inconclusive: 31.6 µM [inhibitor, single point]"
15,Cc1c(C(=O)N2CCC(Cc3ccccc3)CC2)sc2ncnc(N3CCC(C)CC3)c12,inactive
16,COC(=O)C1C(=O)C=C(Nc2ccc(F)cc2)CC1c1ccc(OC)cc1 (stereo not drawn),"inconclusive: 17.8 µM [inhibitor, single point]"
17,COn1c(SCc2ccccc2)nc2ccccc2c1=O,"inconclusive: 44.7 µM [inhibitor, single point]"
18,CCC(=O)Nc1ccc(N2CCCCC2)c(C(=O)Nc2ccccc2C)c1,"inconclusive: 39.8 µM [inhibitor, single point]"
19,C/C=C/COC(=O)c1[nH]c2c(c1C)C(=O)CC(c1ccc(N(C)C)cc1)C2 (stereo not drawn),active: 5.01 µM
20,CC1(C)C/C(=N\NC(=S)Nc2ccccc2F)c2cc(O)ccc2O1,"inconclusive: 25.1 µM [inhibitor, partial curve]"
21,COc1cccc(N2CCN(c3c(C#N)c(C(F)(F)F)nn3C)CC2)c1,inactive
22,C[C@@H]1C[C@](C)(C(=O)c2ccc3c(c2)OCO3)C=C1c1ccc2c(c1)OCO2,inactive
23,COc1ccc(S(=O)(=O)Oc2ccc3c(c2)O/C(=C\c2cccnc2)C3=O)cc1,active: 7.94 µM
